The campaign covered roughly 310,000 compounds. About 14,000 (4.5%) showed an effect of 50% or more. The effect is printed as a negative number. The list shows a part of the results.
What follows are compounds tested against human ether-à-go-go-related gene (hERG) potassium channel (human, UniProt Q12809) (assay: primary screen, population patch clamp on CHO cells stably expressing hERG).
Chain of human ether-à-go-go-related gene (hERG) potassium channel (Q12809 whole entry, looked up): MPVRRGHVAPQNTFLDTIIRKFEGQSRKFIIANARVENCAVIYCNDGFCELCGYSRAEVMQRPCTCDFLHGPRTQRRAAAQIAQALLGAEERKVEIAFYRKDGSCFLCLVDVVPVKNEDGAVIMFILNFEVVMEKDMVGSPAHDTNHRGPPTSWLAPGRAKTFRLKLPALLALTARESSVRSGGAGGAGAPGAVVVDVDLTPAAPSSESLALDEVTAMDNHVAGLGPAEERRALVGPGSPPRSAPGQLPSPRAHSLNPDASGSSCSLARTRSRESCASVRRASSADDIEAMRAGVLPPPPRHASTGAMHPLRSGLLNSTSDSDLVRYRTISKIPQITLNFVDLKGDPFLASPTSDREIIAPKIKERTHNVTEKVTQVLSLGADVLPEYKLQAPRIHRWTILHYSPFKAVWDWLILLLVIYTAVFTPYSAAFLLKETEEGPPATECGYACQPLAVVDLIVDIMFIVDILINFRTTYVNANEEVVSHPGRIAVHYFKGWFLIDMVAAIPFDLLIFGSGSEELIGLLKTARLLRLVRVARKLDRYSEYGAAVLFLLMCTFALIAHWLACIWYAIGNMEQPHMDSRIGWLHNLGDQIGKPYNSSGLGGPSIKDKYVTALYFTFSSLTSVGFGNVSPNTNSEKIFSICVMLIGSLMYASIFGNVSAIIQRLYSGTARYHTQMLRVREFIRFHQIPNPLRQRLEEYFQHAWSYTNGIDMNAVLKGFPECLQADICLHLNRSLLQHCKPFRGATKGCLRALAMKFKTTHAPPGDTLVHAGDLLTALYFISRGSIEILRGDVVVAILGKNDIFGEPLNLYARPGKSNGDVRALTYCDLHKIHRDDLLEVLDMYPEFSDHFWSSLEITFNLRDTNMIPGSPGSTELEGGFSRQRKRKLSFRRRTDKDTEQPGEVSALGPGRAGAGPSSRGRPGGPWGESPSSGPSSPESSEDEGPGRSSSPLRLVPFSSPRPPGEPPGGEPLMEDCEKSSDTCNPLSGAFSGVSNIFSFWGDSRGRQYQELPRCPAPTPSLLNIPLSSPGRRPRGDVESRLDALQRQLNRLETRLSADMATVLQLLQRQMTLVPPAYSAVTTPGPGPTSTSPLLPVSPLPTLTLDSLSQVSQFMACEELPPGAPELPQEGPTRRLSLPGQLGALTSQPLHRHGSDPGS
For `Cc1ccc(C(=O)NCC(=O)OCC(=O)/C=C2\N(C)c3ccccc3C2(C)C)cc1C`, the “hERG current change (%, negative = inhibition) at 10uM” value was -18.7%. In the case of `Cc1cc(C(=O)NC(C)CCC(C)C)c2ccccc2n1` (stereo not shown), the “hERG current change (%, negative = inhibition) at 10uM” value is reported as 15.9%. In the case of `O=C(Nc1ccc(OC(F)(F)F)cc1)NC1CCC(Oc2ccc(C(=O)O)cc2)CC1` (stereo not shown), the “hERG current change (%, negative = inhibition) at 10uM” value is reported as -10%. With `COc1ccc(CN2C(=O)c3ccccc3C2=O)cc1C(=O)Nc1ccc(C)cc1C` the “hERG current change (%, negative = inhibition) at 10uM” value was 4.22%. For `Cc1ccc(-n2c(C)nn(Cc3ccc([N+](=O)[O-])cc3)c2=O)cc1`, the “hERG current change (%, negative = inhibition) at 10uM” value was -7.12%. For `CC1CC(C)CN(C(=O)c2cc3ccccc3o2)C1` (stereo not shown), the “hERG current change (%, negative = inhibition) at 10uM” value was -2.2%. For `O=C(c1cc(-c2ccccc2)on1)N1CCc2ccccc2C1`, the “hERG current change (%, negative = inhibition) at 10uM” value was 24.4%. For `Cc1ccc2c(c1)N(CC(=O)NC1CCCCCC1)C(=O)c1cccnc1O2`, the “hERG current change (%, negative = inhibition) at 10uM” value was -0.961%. In the case of `COCC(=O)N1CCc2ccc(NC(=O)c3ccccc3Cl)cc2C1`, the “hERG current change (%, negative = inhibition) at 10uM” value is reported as 8.61%. With `CCCc1cc(C(=O)Nc2cc(Cl)ccc2O)no1` the “hERG current change (%, negative = inhibition) at 10uM” value was 6.97%. In the case of `CCOC(=O)CCCCCN(Cc1ccccc1)S(=O)(=O)c1ccc([N+](=O)[O-])cc1`, the “hERG current change (%, negative = inhibition) at 10uM” value is reported as -30.8%. In the case of `Cc1csc(NC(=O)C(C)Oc2ccc(Br)cc2)n1` (stereo not shown), the “hERG current change (%, negative = inhibition) at 10uM” value is reported as -42.3%. In the case of `CCC(C)Sc1nc2c(cnn2-c2ccccc2)c(=O)[nH]1` (stereo not shown), the “hERG current change (%, negative = inhibition) at 10uM” value is reported as 4.27%. `COc1ccc(C)cc1S(=O)(=O)N1CCN(C/C=C/c2ccccc2)CC1` was tested, and the “hERG current change (%, negative = inhibition) at 10uM” value was -23.8%. For `Cc1ccc(NC(=O)C2CCCN2S(=O)(=O)c2ccc(F)cc2)c(C)c1` (stereo not shown), the “hERG current change (%, negative = inhibition) at 10uM” value was -8.08%. `NNC(=O)c1ccc(COCC(F)(F)C(F)F)cc1` was tested, and the “hERG current change (%, negative = inhibition) at 10uM” value was 14.5%. In the case of `CC(=O)N1CCN(C(=O)COC(=O)COc2ccc(C#N)cc2)CC1`, the “hERG current change (%, negative = inhibition) at 10uM” value is reported as 4.54%. With `CCCCC(=O)Nc1ccc(F)c(Cl)c1` the “hERG current change (%, negative = inhibition) at 10uM” value was -0.287%. In the case of `O=C(CNc1ccccc1)N/N=C/c1cc([N+](=O)[O-])ccc1N1CCCC1`, the “hERG current change (%, negative = inhibition) at 10uM” value is reported as 4.85%. For `O=C(CSc1ncc(C(F)(F)F)cc1Cl)NCC1CCCO1` (stereo not shown), the “hERG current change (%, negative = inhibition) at 10uM” value was 9.64%. `CCCNC(=O)Cn1nc(C(F)(F)F)cc1C` was tested, and the “hERG current change (%, negative = inhibition) at 10uM” value was -20.3%. In the case of `CCOc1ccccc1CNC(=O)c1cc2occc2n1C`, the “hERG current change (%, negative = inhibition) at 10uM” value is reported as 3.12%. For `CC(=O)/C(=C\N(C)C)Sc1ccc(Cl)cc1`, the “hERG current change (%, negative = inhibition) at 10uM” value was -1.31%. `CCOC(=O)N1CCN(c2nc(-c3cccs3)cc(C(F)(F)F)n2)CC1` was tested, and the “hERG current change (%, negative = inhibition) at 10uM” value was 20.6%. With `O=C(N/N=C\C1C(=O)NC(=S)N(c2ccccc2)C1=O)c1ccc(O)cc1` (stereo not shown) the “hERG current change (%, negative = inhibition) at 10uM” value was 19.4%. `CCOCCn1c(=O)c2c(nc3n2CCCN3CCc2ccccc2)n(C)c1=O` was tested, and the “hERG current change (%, negative = inhibition) at 10uM” value was -22.8%. With `CCOC(=O)c1c(C)[nH]c(NC(=O)NNC(=O)c2ccc(OC)cc2)c1C` the “hERG current change (%, negative = inhibition) at 10uM” value was 0.184%. In the case of `O=C(O)CCCC(=O)Nc1ccc(OCc2nc3ccccc3s2)cc1`, the “hERG current change (%, negative = inhibition) at 10uM” value is reported as 15.1%. With `Clc1cccc(N2CCN(c3nnnn3-c3ccccc3)CC2)c1` the “hERG current change (%, negative = inhibition) at 10uM” value was -28.9%. With `CCc1nc(CNC(=O)C2CCC(=O)N(Cc3cccc(OC)c3)C2)no1` (stereo not shown) the “hERG current change (%, negative = inhibition) at 10uM” value was 17.8%. With `Cc1ccc(NC(=S)Nc2ccc3[nH]c(=O)[nH]c3c2)cc1` the “hERG current change (%, negative = inhibition) at 10uM” value was 11.4%. `CCOC(=O)C1CCN(CC(=O)N2CCc3ccccc32)CC1` was tested, and the “hERG current change (%, negative = inhibition) at 10uM” value was -25.4%. For `NS(=O)(=O)c1ccc(N/N=C/c2ccccc2C(=O)O)c([N+](=O)[O-])c1`, the “hERG current change (%, negative = inhibition) at 10uM” value was 2.22%. With `CCSc1nnc(C)c2ccccc12` the “hERG current change (%, negative = inhibition) at 10uM” value was 12.9%. With `Cc1onc(-c2ccccc2)c1C(=O)N1CCN(S(=O)(=O)c2ccc3c(c2)OCCO3)CC1` the “hERG current change (%, negative = inhibition) at 10uM” value was -17.2%. In the case of `O=C(CN1CCOCC1)c1cccc2ccccc12.O=C(O)C(=O)O`, the “hERG current change (%, negative = inhibition) at 10uM” value is reported as 5.8%. With `CC(C)C(NC(=O)c1ccccc1NC(=O)c1ccco1)C(=O)O` (stereo not shown) the “hERG current change (%, negative = inhibition) at 10uM” value was -14.1%. In the case of `COc1cc2c(cc1OC)CN(CCC(=O)c1ccc(Br)cc1)CC2`, the “hERG current change (%, negative = inhibition) at 10uM” value is reported as -66.9%. With `CCOc1ccc(NC(=O)C2CCN(C(=O)NC3CCCCC3)CC2)cc1` the “hERG current change (%, negative = inhibition) at 10uM” value was 9.67%. With `CC1(C)CC(=O)C=C(NC2CCCCCCC2)C1` the “hERG current change (%, negative = inhibition) at 10uM” value was -11.9%. In the case of `COc1ccc(Nc2nc(N3CCOCC3)nc(N3CCOCC3)n2)cc1`, the “hERG current change (%, negative = inhibition) at 10uM” value is reported as 11.7%. With `O=C(O)c1ccccc1C(=O)c1ccc(Sc2ccc(Cl)cc2)c([N+](=O)[O-])c1` the “hERG current change (%, negative = inhibition) at 10uM” value was 6.94%. In the case of `Cc1ccc2sc(NNC(=O)c3ccc4c(c3)OCCO4)nc2c1C`, the “hERG current change (%, negative = inhibition) at 10uM” value is reported as 4.4%. In the case of `COC(=O)c1c(NC(=O)COC(=O)c2ccc(NC(=O)CC#N)cc2)sc2c1CCCCC2`, the “hERG current change (%, negative = inhibition) at 10uM” value is reported as 17.6%. With `COc1cccc(N2C(=O)N(c3ccccc3)C3CS(=O)(=O)CC32)c1` (stereo not shown) the “hERG current change (%, negative = inhibition) at 10uM” value was -8.69%. In the case of `N#C/C(=C/c1ccncc1)c1nc2ccccc2c(=O)[nH]1`, the “hERG current change (%, negative = inhibition) at 10uM” value is reported as 1.82%. In the case of `CCN(CC)S(=O)(=O)c1ccc(N2CCc3ccccc3C2)nc1`, the “hERG current change (%, negative = inhibition) at 10uM” value is reported as 0.99%. For `CCCCNC(=O)NC(C(=O)OC)C12CC3CC(CC(C3)C1)C2` (stereo not shown), the “hERG current change (%, negative = inhibition) at 10uM” value was -21.7%. With `C[C@H](NC(=O)c1ccc(Cl)cc1)C(=O)NNC(=O)c1cccs1` the “hERG current change (%, negative = inhibition) at 10uM” value was 12.2%. In the case of `OCCN1CCN(Cc2cc(Cl)c3cccnc3c2O)CC1`, the “hERG current change (%, negative = inhibition) at 10uM” value is reported as 16.6%. In the case of `Cc1cc(C)nc(SCC(=O)N/N=C/c2cccs2)n1`, the “hERG current change (%, negative = inhibition) at 10uM” value is reported as 4.66%. With `CCCN(CCC)S(=O)(=O)c1ccc(C(=O)Nc2c(C)n(C)n(-c3ccccc3)c2=O)cc1` the “hERG current change (%, negative = inhibition) at 10uM” value was 6.2%. With `Cc1ccc(S(=O)(=O)NCCCC(=O)O)cc1` the “hERG current change (%, negative = inhibition) at 10uM” value was 15.7%. `O=C(OCC(=O)c1ccc(Cl)cc1Cl)c1cnccn1` was tested, and the “hERG current change (%, negative = inhibition) at 10uM” value was -58.3%. For `CC(C)O.Cc1ccc(-c2cc(C(=O)O)n(-c3ccc(S(N)(=O)=O)cc3)n2)cc1`, the “hERG current change (%, negative = inhibition) at 10uM” value was 21.6%. With `COc1ccc(CCNCc2c(-c3ccccc3)n(C)c3ccccc23)cc1.O=C(O)C(=O)O` the “hERG current change (%, negative = inhibition) at 10uM” value was -52.3%. For `COc1ccc(Cl)cc1S(=O)(=O)NCc1ccncc1`, the “hERG current change (%, negative = inhibition) at 10uM” value was 4.02%. In the case of `OCC(CO)(CO)N=Cc1c(O)ccc2ccccc12`, the “hERG current change (%, negative = inhibition) at 10uM” value is reported as -0.63%.
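Note: peak tail current of the secondary pulse compared with the same well before compound.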
